# Test results taken from the supplement of paper PMC8728848.
# This is one part of the list.
# B1: LICBM33A (Lactococcus lactis), Q9CE94 (protein)
# chain: MKKLLTGLLVAAGLLSVSLLIKTDTVSAHGYVQSPPARGYQGQLDSQSLGWTAAFNIYGNVISNPQSLEAPKGFPECGPADGRIASANGGLGQIGDFVLDNQTSSRWKKTSISTGSNIFTWKYTAPHKTTKWHYYMTKTGWDQNAPLKHSELELIGTINHDGSPATNNLSHTINIPTDRSGYHIVLAVWDVADTSNAFYNVIDINVNNKNASSQVFGPFL
# Columns and labels:
# Test in all cases: glycan array binding signal (z-score within array); higher = stronger binding
# Conditions in all cases: glycan notation: IUPAC condensed, linker removed
# [1] = biological target: Gal3S(b1-3)[Fuc(a1-4)]GlcNAc
# Method in brief: (§1)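 Glycan array data came from 3228 arrays in the Consortium for Functional Glycomics database, and only arrays with an available protein sequence were kept. Glycan names were put into IUPAC-condensed notation, and columns mapping to the same glycan were averaged. The binding signal is a within-array Z-score, averaged across arrays of one protein sequence run at different concentrations or buffers and across linkers. A negative Z-score can be read as non-binding.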
# Gal3S(b1-4)Glc = biological target: Gal3S(b1-4)Glc
# Method in brief: as §1
# Gal3S(b1-4)Glc6S = biological target: Gal3S(b1-4)Glc6S
# Method in brief: as §1
# Gal3S(b1-4)GlcNAc = biological target: Gal3S(b1-4)GlcNAc
# Method in brief: as §1
# [2] = biological target: Gal3S(b1-4)[Fuc(a1-3)]Glc6S
# Method in brief: as §1
# [3] = biological target: Gal3S(b1-4)[Fuc(a1-3)]GlcNAc
# Method in brief: as §1
# [4] = biological target: Gal3S(b1-4)[Fuc(a1-3)]GlcNAc6S
# Method in brief: as §1
# Gal3S4S(b1-4)GlcNAc = biological target: Gal3S4S(b1-4)GlcNAc
# Method in brief: as §1
# Gal3S6S(b1-4)GlcNAc = biological target: Gal3S6S(b1-4)GlcNAc
# Method in brief: as §1
# Gal3S6S(b1-4)GlcNAc6S = biological target: Gal3S6S(b1-4)GlcNAc6S
# Method in brief: as §1
# Gal4S(b1-4)GlcNAc = biological target: Gal4S(b1-4)GlcNAc
# Method in brief: as §1
# Gal4S6S(b1-4)GlcNAc = biological target: Gal4S6S(b1-4)GlcNAc
# Method in brief: as §1
# Gal6P(b1-4)GlcNAc = biological target: Gal6P(b1-4)GlcNAc
# Method in brief: as §1
# Gal6S(b1-3)GlcNAc = biological target: Gal6S(b1-3)GlcNAc
# Method in brief: as §1
# Gal6S(b1-3)GlcNAc6S = biological target: Gal6S(b1-3)GlcNAc6S
# Method in brief: as §1
# Gal6S(b1-4)Glc = biological target: Gal6S(b1-4)Glc
# Method in brief: as §1
# Gal6S(b1-4)Glc6S = biological target: Gal6S(b1-4)Glc6S
# Method in brief: as §1
# Gal6S(b1-4)GlcNAc = biological target: Gal6S(b1-4)GlcNAc
# Method in brief: as §1
# Gal6S(b1-4)GlcNAc6S = biological target: Gal6S(b1-4)GlcNAc6S
# Method in brief: as §1
# GalNAc(a1-3)Gal = biological target: GalNAc(a1-3)Gal
# Method in brief: as §1
# GalNAc(a1-3)GalNAc = biological target: GalNAc(a1-3)GalNAc
# Method in brief: as §1
# [5] = biological target: GalNAc(a1-3)GalNAc(b1-3)Gal(a1-4)Gal(b1-4)Glc
# Method in brief: as §1
# [6] = biological target: GalNAc(a1-3)GalNAc(b1-3)Gal(a1-4)Gal(b1-4)GlcNAc
# Method in brief: as §1
# GalNAc(b1-3)Gal = biological target: GalNAc(b1-3)Gal
# Method in brief: as §1
# [7] = biological target: GalNAc(b1-3)Gal(a1-4)Gal(b1-4)GlcNAc
# Method in brief: as §1
# [8] = biological target: GalNAc(b1-3)Gal(a1-4)Gal(b1-4)GlcNAc(b1-3)Gal(b1-4)Glc
# Method in brief: as §1
# [9] = biological target: GalNAc(b1-3)Gal(a1-6)Gal(b1-4)Glc
# Method in brief: as §1
# GalNAc(b1-3)GalNAc = biological target: GalNAc(b1-3)GalNAc
# Method in brief: as §1
# GalNAc(b1-3)GlcNAc = biological target: GalNAc(b1-3)GlcNAc
# Method in brief: as §1
# GalNAc(b1-4)Gal(b1-4)Glc = biological target: GalNAc(b1-4)Gal(b1-4)Glc
# Method in brief: as §1
# GalNAc(b1-4)GlcNAc = biological target: GalNAc(b1-4)GlcNAc
# Method in brief: as §1
# [10] = biological target: GalNAc(b1-4)GlcNAc(b1-2)Man
# Method in brief: as §1
# [11] = biological target: GalNAc(b1-4)GlcNAc(b1-2)Man(a1-3)[GalNAc(b1-4)GlcNAc(b1-2)Man(a1-6)]Man(b1-4)GlcNAc(b1-4)GlcNAc
# Method in brief: as §1
# [12] = biological target: GalNAc(b1-4)GlcNAc(b1-3)GalNAc(b1-4)GlcNAc
# Method in brief: as §1
# GalNAc(b1-4)GlcNAc6S = biological target: GalNAc(b1-4)GlcNAc6S
# Method in brief: as §1
# GalNAc(b1-6)GalNAc = biological target: GalNAc(b1-6)GalNAc
# Method in brief: as §1
# GalNAc3S(b1-4)GlcNAc = biological target: GalNAc3S(b1-4)GlcNAc
# Method in brief: as §1
# GalNAc3S(b1-4)GlcNAc3S = biological target: GalNAc3S(b1-4)GlcNAc3S
# Method in brief: as §1
# [13] = biological target: GalNAc3S(b1-4)[Fuc(a1-3)]GlcNAc
# Method in brief: as §1
# GalNAc4S6S(b1-4)GlcNAc = biological target: GalNAc4S6S(b1-4)GlcNAc
# Method in brief: as §1
# GalNAc6S(b1-4)GlcNAc = biological target: GalNAc6S(b1-4)GlcNAc
# Method in brief: as §1
# Glc(a1-4)Glc = biological target: Glc(a1-4)Glc
# Method in brief: as §1
# [14] = biological target: Glc(a1-4)Glc(a1-4)Glc(a1-4)Glc
# Method in brief: as §1
# Glc(a1-6)Glc(a1-6)Glc = biological target: Glc(a1-6)Glc(a1-6)Glc
# Method in brief: as §1
# [15] = biological target: Glc(a1-6)Glc(a1-6)Glc(a1-6)Glc
# Method in brief: as §1
binder,measurement,setting,value
B1,glycan array binding signal (z-score),[1],1.94
same,glycan array binding signal (z-score),Gal3S(b1-4)Glc,-0.272
same,glycan array binding signal (z-score),Gal3S(b1-4)Glc6S,0.122
same,glycan array binding signal (z-score),Gal3S(b1-4)GlcNAc,0.583
same,glycan array binding signal (z-score),[2],-0.717
same,glycan array binding signal (z-score),[3],-0.127
same,glycan array binding signal (z-score),[4],1.57
same,glycan array binding signal (z-score),Gal3S4S(b1-4)GlcNAc,-0.485
same,glycan array binding signal (z-score),Gal3S6S(b1-4)GlcNAc,1.24
same,glycan array binding signal (z-score),Gal3S6S(b1-4)GlcNAc6S,-0.382
same,glycan array binding signal (z-score),Gal4S(b1-4)GlcNAc,-0.496
same,glycan array binding signal (z-score),Gal4S6S(b1-4)GlcNAc,0.179
same,glycan array binding signal (z-score),Gal6P(b1-4)GlcNAc,-0.468
same,glycan array binding signal (z-score),Gal6S(b1-3)GlcNAc,-0.066
same,glycan array binding signal (z-score),Gal6S(b1-3)GlcNAc6S,-1.45
same,glycan array binding signal (z-score),Gal6S(b1-4)Glc,-1.14
same,glycan array binding signal (z-score),Gal6S(b1-4)Glc6S,-1.04
same,glycan array binding signal (z-score),Gal6S(b1-4)GlcNAc,-0.46
same,glycan array binding signal (z-score),Gal6S(b1-4)GlcNAc6S,0.359
same,glycan array binding signal (z-score),GalNAc(a1-3)Gal,-0.554
same,glycan array binding signal (z-score),GalNAc(a1-3)GalNAc,-0.223
same,glycan array binding signal (z-score),[5],-0.96
same,glycan array binding signal (z-score),[6],-0.197
same,glycan array binding signal (z-score),GalNAc(b1-3)Gal,-0.192
same,glycan array binding signal (z-score),[7],-0.027
same,glycan array binding signal (z-score),[8],1.6
same,glycan array binding signal (z-score),[9],0.079
same,glycan array binding signal (z-score),GalNAc(b1-3)GalNAc,-0.339
same,glycan array binding signal (z-score),GalNAc(b1-3)GlcNAc,-0.274
same,glycan array binding signal (z-score),GalNAc(b1-4)Gal(b1-4)Glc,0.615
same,glycan array binding signal (z-score),GalNAc(b1-4)GlcNAc,-0.066
same,glycan array binding signal (z-score),[10],0.642
same,glycan array binding signal (z-score),[11],-0.578
same,glycan array binding signal (z-score),[12],-0.387
same,glycan array binding signal (z-score),GalNAc(b1-4)GlcNAc6S,-0.42
same,glycan array binding signal (z-score),GalNAc(b1-6)GalNAc,-0.886
same,glycan array binding signal (z-score),GalNAc3S(b1-4)GlcNAc,0.631
same,glycan array binding signal (z-score),GalNAc3S(b1-4)GlcNAc3S,-0.284
same,glycan array binding signal (z-score),[13],-0.43
same,glycan array binding signal (z-score),GalNAc4S6S(b1-4)GlcNAc,-0.487
same,glycan array binding signal (z-score),GalNAc6S(b1-4)GlcNAc,-0.463
same,glycan array binding signal (z-score),Glc(a1-4)Glc,-0.061
same,glycan array binding signal (z-score),[14],-0.426
same,glycan array binding signal (z-score),Glc(a1-6)Glc(a1-6)Glc,0.839
same,glycan array binding signal (z-score),[15],0.945
